Measurements: ChEMBL document CHEMBL4888484, “Replenishing the malaria drug discovery pipeline: Screening and hit evaluation of the MMV Hit Generation Library 1 (HGL1) against asexual blood stage Plasmodium falciparum ,using a nano luciferase reporter read-out” (2022)
In all, about 150,000 compounds went through this assay and about 540 (0.36%) showed an effect of 50% or more. The list shows a part of the results.

Test system: Plasmodium falciparum
Experiment: Primary screen in NF54 nanoGlo assay, in single point, at 2uM, 72h; a lower Z score goes with more inhibition
Format: functional, Erythrocyte
Settings: timepoint 72 hour

Structure (SMILES) | % Inhibition [%] | Z score
O=S(=O)(c1ccsc1)N1CCC(OCCN2CCCC2)CC1 | -12 | 1.33
CCCCN1C(=O)c2c(NC(C)=O)c3cc(OC)ccc3n2C[C@@]1(C)C(=O)NC1CCCCC1 | -13 | 1.27
O=c1[nH]nc(CCn2ccnc2-c2ccc(CN3CCCC3)s2)[nH]1 | -5 | 0.72
CN(CCc1ccccc1F)[C@H]1CCN(CC(F)(F)F)C1=O | 3 | -0.44
CC(C)(C)C(=O)Nc1cnc(N2CCCCCC2)nc1 | -35 | 3.11
CCC(CC)(CN)NS(=O)(=O)c1c(F)cccc1F | 7 | -0.99
CNS(=O)(=O)[C@H]1CCCN(c2ccc3cc(Cl)cnc3n2)C1 | -14 | 2.15
Cc1ccc(-n2nc(C(=O)NCCc3ccccn3)c(=O)n(Cc3cccc(C(F)(F)F)c3)c2=O)cc1 | -19 | 1.7
CN1CCN(c2nc3c(c(Oc4ccc(F)c(F)c4)n2)CN(C(=O)c2ccc(F)cc2)CC3)CC1 | -8 | 0.92
NC(=O)CN(Cc1coc(-c2cccs2)n1)C1CCCC1 | -15 | 1.39
Cc1ccccc1CNC(=O)c1ccc(N2CCOc3ccccc32)s1 | -1 | 0.14
C[C@@H]1CN(C(=O)CCC(C)(C)C(=O)N2C[C@@H](C)O[C@@H](C)C2)C[C@H](C)O1 | -15 | 2.04
CCc1ccc(COc2ccc(-n3c(=O)cc(C(F)(F)F)n(CC)c3=O)cc2)c(O[C@@H](C)C(=O)OC)c1 | -32 | 3.75
O=C(Nc1ccc(N2CCN(c3c(F)c(F)c(F)c(F)c3F)CC2)cc1)c1cccc2ccccc12 | 1 | -0.18
Cc1nc(C(=O)N2CCCC[C@@H]2CN)c(C)s1 | -22 | 2.01
CCCn1cnnc1[C@H](C)NS(=O)(=O)CCC | -3 | 0.57
CC(C)Oc1ccc(CN2CCOC[C@H]2C(=O)O)cc1Cl | 1 | -0.16
CC(C)CC[C@@H](c1ccccc1)N(C)C(=O)c1csnn1 | 16 | -2.05
CCN(C)C1(CNS(=O)(=O)CC(C)C)CCCCC1 | -4 | 0.83
C[C@@H](Cc1cnccn1)N(C)C(=O)c1cccn1C | -12 | 2.54
CN1CCC(NS(=O)(=O)CC2CCC(F)C2)CC1=O (stereo not drawn) | -2 | 0.34

Structure (SMILES) | % Inhibition [%] | Z score
CC(Cc1cccs1)NC(=O)CC(N)c1ccccc1 (stereo not drawn) | 5 | -0.52
CC(C)(C)[C@H]1CCc2c(sc(NC(=O)c3ccccc3F)c2C(=O)N2CCC(C(N)=O)CC2)C1 | 5 | -0.76
CO[C@H]1[C@H](NC(=O)C(C)C)c2ccccc2C12CCN(C(=O)CCc1scnc1C)CC2 | 10 | -1.3
CCOc1nnc(CN2c3ccccc3CC[C@@H]2CCO)s1 | -4 | 0.54
O=C(Cc1ccc(S(=O)(=O)Nc2ccc(F)c(Cl)c2)s1)N1CCCC1 | 0 | -0.1
Cc1occc1C(=O)N1CCN(C(=O)c2ccccn2)[C@H]2CS(=O)(=O)C[C@H]21 | -10 | 1.33
Cc1cc(C(C)NC(C)CCS(C)(=O)=O)ccc1Br (stereo not drawn) | -9 | 0.95
CCOCCCNC(=O)C(=O)NCc1nc(C)cs1 | 2 | -0.17
O=C(O)c1nn2cc(-c3ccccc3CN3CCOCC3)cnc2c1Cl | 4 | -0.61
CC(=O)N[C@H]1CCN(C(=O)c2cc(Cl)c[nH]2)C1 | 6 | -0.76
COc1ccc2nc(-n3nc(C)c4c3NC(=O)C[C@@H]4c3cc(C)ccc3C)sc2c1 | -6 | 0.99
Cc1cnc(CNC(=O)N[C@H](C)c2cc3ccccc3o2)s1 | 12 | -1.38
C=CCCC(=O)Nc1nc(C(C)(C)C)ns1 | -47 | 5.56
O=C(O)C1(Oc2cccc(F)c2)CCN(c2ncnc3sccc23)CC1 | -12 | 2.19
Cc1nocc1NC(=O)N[C@H]1CCN(CC(F)F)C1 | 1 | -0.21
c1ccc(CN2CCN(Cc3nnc4n3CCCCC4)CC2)cc1 | -5 | 0.72
Cc1cccc2c(N(C)Cc3ccc4c(c3)OCO4)ncnc12 | 9 | -1.17
O=C(OCC#Cc1ccccc1)c1cccc(-n2cccn2)n1 | -1 | 0.1
COc1ccc(-n2c(=O)[nH]c3nc(N4CCC(C(N)=O)CC4)ncc3c2=O)cc1 | -9 | 1.36
O=C1NCCN(Cc2ccn(CC(F)(F)F)n2)c2ccccc21 | 3 | -0.4
Cc1cc(N2CCCC2)nc(CNC(=O)C(C)(C)C)n1 | 0 | 0.01

Structure (SMILES) | % Inhibition [%] | Z score
CN(C)S(=O)(=O)NCC(C)(C)c1ccc(C(F)(F)F)cc1 | -4 | 0.61
O=C(COc1ccc(Cl)cc1Cl)N1CCC(O)(Cn2ccnc2)CC1 | -1 | 0.12
O=C1COc2ccc(C(=O)N3CCN(c4ccccc4F)CC3)cc2N1 | 10 | -1.3
CO[C@@](C(=O)Nc1c(C)nn(CC(=O)O)c1C)(c1ccccc1)C(F)(F)F | 2 | -0.32
C[C@@H](C1CC1)n1ncc2[nH]c(-c3nccn3C)nc21 | -1 | 0.09
CCN1CCN(CC(=O)N2c3ccccc3C[C@@H]2C)CC1 | 2 | -0.34
CCNC(=O)CN1CN(c2ccccc2)C2(CCN(C(=O)Nc3ccccc3C)CC2)C1=O | -15 | 1.43
CN(C)C[C@]1(CO)CCCN(Cc2cccc3cc[nH]c23)C1 | -1 | 0.27
O=C(Nc1ccc(-c2c3ccccc3c(-c3ccc(NC(=O)c4cccc5ccccc45)cc3)c3ccccc23)cc1)c1cccc2ccccc12 | -8 | 1.08
CN1CCN(C(=O)c2cc(NC(=O)N3CC(CC4CC4)C3)ccn2)CC1 | -3 | 0.6
CCC[C@H](C)NC(=O)c1ccc(N(C)S(C)(=O)=O)c(C)c1 | -5 | 0.76
O=C(NCc1ccccc1)N(CCCN1CCCC1)C1CCOCC1 | -6 | 1.21
CC(C)(C)OC(=O)NCc1ccc(C(=O)NC2C3CCOC3C23CCC3)o1 (stereo not drawn) | -8 | 1.21
CC(C)OCCCC(=O)Nc1cnccn1 | -10 | 1.02
CCC1CN(C(=O)OCc2ccccc2)C(CC)CN1 (stereo not drawn) | -4 | 0.7
CN(C[C@H]1CCCO1)C(=O)CCc1cncs1 | -9 | 1.21
C[C@@H](C(=O)N1CCCCC1)N1CCN(Cc2ccc(CO)o2)CC1 | -14 | 1.75
Clc1ccc(CN(CCCN2CCOCC2)C2CCOCC2)cc1 | -2 | 0.23
O=C(Nc1ccc(F)cn1)[C@@H]1CCCN[C@@H]1C1CC1 | -3 | 0.55
COc1ccccc1-c1ccc(C(=O)NCCN2CCOCC2)c(N2CCC(N3CCC[C@H](CO)C3)CC2)n1 | -3 | 0.6
Cn1cnc(C(=O)N2CC[C@H](Cc3nnc(C4CCOCC4)o3)C2)c1 | 1 | -0.11

Structure (SMILES) | % Inhibition [%] | Z score
COC(=O)c1ccc(N2CCN(c3nc(CO)cs3)CC2)cc1 | -2 | 0.23
O=C1O[C@H](C(=O)Nc2ccc(Cl)cc2-n2cccn2)Cc2ccccc21 | -5 | 0.52
CN(Cc1ccco1)Cc1nnc(-c2ccc(Cl)cc2)o1 | -8 | 0.96
CC(C)c1nc(CCN(C)C(=O)c2cc(Cl)c[nH]2)no1 | -12 | 1.74
O=C(Cn1cnc(-c2nc(-c3ccccc3)cs2)c1)Nc1ccc(F)cc1 | -8 | 0.99
Cc1cc(C)n(Cc2cccc(F)c2)c1C(=O)NCc1cccc(C(F)(F)F)c1 | 0 | -0.02
COc1cccc(C(=O)N(Cc2cc(-c3ccc(OC)cc3OC)on2)C2CC2)c1 | 29 | -3.91
CC[C@H]1C(=O)NCCN1Cc1snc(OC)c1Br | -4 | 0.6
CCOc1nnc(CN(C)[C@H]2CCc3ccccc3C2)s1 | -13 | 2.06
CCCc1nc(Cn2ccc([C@H](C)O)n2)cs1 | -5 | 0.65
CCOC(=O)N1CCN(C(=O)c2cccc(N(C)C)c2)CC1 | -1 | 0.2
CCCc1cc(N2CCC(CCCN3CCOCC3)CC2)n2ncnc2n1 | -5 | 0.77
CCS(=O)(=O)NCCNC(=O)C(F)=C1CCC1 | -10 | 1.52
Cc1ccc(CN2C(=O)CC(c3ccc(C)cc3)CC2=O)cc1 | 4 | -0.59
O=S(=O)(CCCF)N[C@H]1CCN(c2ccc(Cl)c(F)c2)C1 | -4 | 0.5
Cc1csc([C@H](C)NC(=O)c2cn(C3CCCCC3)nn2)n1 | 1 | -0.16
Cc1ccc(NC(=O)c2ccnc(-n3cccn3)c2)cc1-c1ncco1 | -4 | 0.64
CCOC1CC(N(C)CCc2cnn(C)c2)C12CCC2 (stereo not drawn) | 22 | -3.46
CCOc1ccc(-c2nc(Cn3nnc(C(=O)NCc4ccc(OC)cc4)c3N)c(C)o2)cc1OC | -5 | 0.72
CN(C)c1nccc(N2CCO[C@@H](Cn3cccn3)C2)n1 | 24 | -2.75
CCc1ccc(O)c(C(=O)N[C@H]2CC23CCNCC3)c1 | 5 | -0.98
